Binding signal data for 31 sequences are collected here from article PMC12820563, “FoxP3 forms a head-to-head dimer in vivo and stabilizes its multimerization on adjacent microsatellites”.

The other results are listed elsewhere or left out.

The target in the assay is T1, MBP-FoxP1dN (Mus musculus, UniProt P58462 326-579).
T1 sequence: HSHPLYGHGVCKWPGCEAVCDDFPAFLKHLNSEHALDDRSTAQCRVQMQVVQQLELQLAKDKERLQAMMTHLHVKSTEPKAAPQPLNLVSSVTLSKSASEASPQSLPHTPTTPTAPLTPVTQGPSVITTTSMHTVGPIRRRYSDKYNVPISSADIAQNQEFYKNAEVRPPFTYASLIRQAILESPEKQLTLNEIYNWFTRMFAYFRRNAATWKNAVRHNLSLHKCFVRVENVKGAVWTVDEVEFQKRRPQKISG
Briefly: PD-seq (MBP pull-down with sequencing); 20 mM Tris-HCl pH 7.5, 100 mM NaCl, 1.5 mM MgCl2, 0.4 uM protein, 0.1 uM dsDNA library, 30 min, room temperature, amylose pull-down; high values mean tight binding. Particulars: protein: recombinant; tags: His6-MBP; chain copies: 2; dsDNA, one strand shown. Summed up:
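Binding is reads-per-million enrichment of pull-down over input, with replicates pooled. It comes from 30 min room-temperature incubation in Tris pH 7.5 buffer with NaCl and MgCl2 of 0.4 µM His6-MBP-tagged, N-terminally truncated mouse FoxP3 or FoxP1 fragment from E. coli with 0.1 µM Klenow-filled degenerate double-stranded DNA library, followed by amylose resin capture, three washes and Illumina sequencing of the released DNA.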
Regarding “GATGATTGTTCTCCCAGCTGATGAATTTACAGCCTCGAGTAAACAAATTTTCCTAATCTTTCTGTTCAAGCGCCATCTAC”, the binding signal was 1.03 RPM ratio (pull-down/input).
“GATGATTGTTCTCCCAGCTGATGAATTCACATGTTCGAGTAAACAAATTTTCCTAATCTTTCTGTTCAAGCGCCATCTAC”: the binding signal is 1.06 RPM ratio (pull-down/input).
“GATGATTGTTCTCCCAGCTGATGAATTGAGAGCATCGAGTAAACAAATTTTCCTAATCTTTCTGTTCAAGCGCCATCTAC”: the binding signal is 0.953 RPM ratio (pull-down/input).
Consider “GATGATTGTTCTCCCAGCTGATGAATTGGGCCGCTCGAGTAAACAAATTTTCCTAATCTTTCTGTTCAAGCGCCATCTAC”, for which the binding signal is 0.814 RPM ratio (pull-down/input).
With “GATGATTGTTCTCCCAGCTGATGAATTTTGCTTCTCGAGTAAACAAATTTTCCTAATCTTTCTGTTCAAGCGCCATCTAC”, the binding signal was 1.04 RPM ratio (pull-down/input).
The same measure for “GATGATTGTTCTCCCAGCTGATGAATTCTCTAATTCGAGTAAACAAATTTTCCTAATCTTTCTGTTCAAGCGCCATCTAC”: 0.933 RPM ratio (pull-down/input); for “GATGATTGTTCTCCCAGCTGATGAATTCACGTGATCGAGTAAACAAATTTTCCTAATCTTTCTGTTCAAGCGCCATCTAC”: 0.794 RPM ratio (pull-down/input); for “GATGATTGTTCTCCCAGCTGATGAATTTGACCTGTCGAGTAAACAAATTTTCCTAATCTTTCTGTTCAAGCGCCATCTAC”: 0.762 RPM ratio (pull-down/input).
As to “GATGATTGTTCTCCCAGCTGATGAATTCCAACCCTCGAGTAAACAAATTTTCCTAATCTTTCTGTTCAAGCGCCATCTAC”, the binding signal is 0.758 RPM ratio (pull-down/input).
On to “GATGATTGTTCTCCCAGCTGATGAATTTGGACACTCGAGTAAACAAATTTTCCTAATCTTTCTGTTCAAGCGCCATCTAC”, for which the binding signal is 0.899 RPM ratio (pull-down/input).
Take “GATGATTGTTCTCCCAGCTGATGAATTCAGAGCTTCGAGTAAACAAATTTTCCTAATCTTTCTGTTCAAGCGCCATCTAC”: the binding signal was 0.783 RPM ratio (pull-down/input).
The result for “GATGATTGTTCTCCCAGCTGATGAATTGTGTGCCTCGAGTAAACAAATTTTCCTAATCTTTCTGTTCAAGCGCCATCTAC” reads 1.14 RPM ratio (pull-down/input); that for “GATGATTGTTCTCCCAGCTGATGAATTGGAGGGTTCGAGTAAACAAATTTTCCTAATCTTTCTGTTCAAGCGCCATCTAC”, 0.86 RPM ratio (pull-down/input); that for “GATGATTGTTCTCCCAGCTGATGAATTAAGTCTCTCGAGTAAACAAATTTTCCTAATCTTTCTGTTCAAGCGCCATCTAC”, 0.885 RPM ratio (pull-down/input).
Turning to “GATGATTGTTCTCCCAGCTGATGAATTTCACCATTCGAGTAAACAAATTTTCCTAATCTTTCTGTTCAAGCGCCATCTAC”, the binding signal is 0.883 RPM ratio (pull-down/input).
In the case of “GATGATTGTTCTCCCAGCTGATGAATTTTCGGTTTCGAGTAAACAAATTTTCCTAATCTTTCTGTTCAAGCGCCATCTAC”, the binding signal was 0.921 RPM ratio (pull-down/input).
The same measure for “GATGATTGTTCTCCCAGCTGATGAATTCCATGACTCGAGTAAACAAATTTTCCTAATCTTTCTGTTCAAGCGCCATCTAC”: 0.839 RPM ratio (pull-down/input).
With “GATGATTGTTCTCCCAGCTGATGAATTAACATGGTCGAGTAAACAAATTTTCCTAATCTTTCTGTTCAAGCGCCATCTAC”, the binding signal is 0.917 RPM ratio (pull-down/input).
For “GATGATTGTTCTCCCAGCTGATGAATTCGACTGGTCGAGTAAACAAATTTTCCTAATCTTTCTGTTCAAGCGCCATCTAC”, the binding signal was 0.809 RPM ratio (pull-down/input).
The result for “GATGATTGTTCTCCCAGCTGATGAATTGAGAAGATCGAGTAAACAAATTTTCCTAATCTTTCTGTTCAAGCGCCATCTAC” reads 0.831 RPM ratio (pull-down/input).
Turning to “GATGATTGTTCTCCCAGCTGATGAATTCTTTGTCTCGAGTAAACAAATTTTCCTAATCTTTCTGTTCAAGCGCCATCTAC”, the binding signal is 0.931 RPM ratio (pull-down/input).
For “GATGATTGTTCTCCCAGCTGATGAATTAATGAAGTCGAGTAAACAAATTTTCCTAATCTTTCTGTTCAAGCGCCATCTAC”, the binding signal is 0.907 RPM ratio (pull-down/input).
With “GATGATTGTTCTCCCAGCTGATGAATTCACTAACTCGAGTAAACAAATTTTCCTAATCTTTCTGTTCAAGCGCCATCTAC”, the binding signal is 0.853 RPM ratio (pull-down/input).
For “GATGATTGTTCTCCCAGCTGATGAATTGTTGACTTCGAGTAAACAAATTTTCCTAATCTTTCTGTTCAAGCGCCATCTAC”, the binding signal was 2.11 RPM ratio (pull-down/input).
As to “GATGATTGTTCTCCCAGCTGATGAATTGGCCATGTCGAGTAAACAAATTTTCCTAATCTTTCTGTTCAAGCGCCATCTAC”, the binding signal is 0.787 RPM ratio (pull-down/input).
Turning to “GATGATTGTTCTCCCAGCTGATGAATTCATGAAATCGAGTAAACAAATTTTCCTAATCTTTCTGTTCAAGCGCCATCTAC”, the binding signal is 1.05 RPM ratio (pull-down/input).
On to “GATGATTGTTCTCCCAGCTGATGAATTGTCTTCCTCGAGTAAACAAATTTTCCTAATCTTTCTGTTCAAGCGCCATCTAC”, for which the binding signal was 1.04 RPM ratio (pull-down/input).
Consider “GATGATTGTTCTCCCAGCTGATGAATTCAATTGTTCGAGTAAACAAATTTTCCTAATCTTTCTGTTCAAGCGCCATCTAC”, for which the binding signal is 1.04 RPM ratio (pull-down/input).
“GATGATTGTTCTCCCAGCTGATGAATTGGCTCCTTCGAGTAAACAAATTTTCCTAATCTTTCTGTTCAAGCGCCATCTAC”: the binding signal is 0.818 RPM ratio (pull-down/input).
“GATGATTGTTCTCCCAGCTGATGAATTCTATCCATCGAGTAAACAAATTTTCCTAATCTTTCTGTTCAAGCGCCATCTAC”: the binding signal is 0.892 RPM ratio (pull-down/input).
Take “GATGATTGTTCTCCCAGCTGATGAATTTGAGGTATCGAGTAAACAAATTTTCCTAATCTTTCTGTTCAAGCGCCATCTAC”: the binding signal is 0.953 RPM ratio (pull-down/input).
